According to PubChem BioAssay AID588342 (National Center for Advancing Translational Sciences (NCATS), 2011):
Among all 360,000 compounds or so, about 25,000 (6.9%) were called active. The shares of active, inactive and inconclusive entries below differ from those in the screen. Calls follow the shape of the dose curve; as a rule, active = well fitted inhibition curve with a large enough effect; inconclusive = small, poorly fitted or top-dose-only effect; inactive = flat fitted curve, though single readings scatter. A potency beside an inconclusive call is a rough fit, not a confirmed value. Some structures have more than one record in an assay (separate samples or runs), and their calls can disagree.

target: Luciferin 4-monooxygenase (Photinus pyralis) (UniProt P08659); experiment: qHTS profiling assay for firefly luciferase inhibitor/activator using purifed enzyme and Km concentrations of substrates (counterscreen for miR-21 project); conditions: purified FLuc, luminescence inhibition; series mostly up to 57.5 µM; activity change, negative = inhibition: at the top concentration; also: nearly all actives have a fitted effect of over 55% in size;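 as to activity change, negative = inhibition: plate controls were vehicle for no effect and reference inhibitor for full effect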
Method in brief: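 Purified P. pyralis luciferase (10nM final) with 10uM D-luciferin and 10uM ATP (Km levels) in 50mM Tris acetate pH 7.5, 10mM Mg acetate, 0.01% Tween-20, 0.05% BSA; qHTS 6-point titration, ~60 µM downward; luminescence read.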
Potency is read from the fitted curve at half-maximal effect; tags tell the direction and shape of the fitted curve.

UniProt P08659, sequence (P08659 whole entry, looked up): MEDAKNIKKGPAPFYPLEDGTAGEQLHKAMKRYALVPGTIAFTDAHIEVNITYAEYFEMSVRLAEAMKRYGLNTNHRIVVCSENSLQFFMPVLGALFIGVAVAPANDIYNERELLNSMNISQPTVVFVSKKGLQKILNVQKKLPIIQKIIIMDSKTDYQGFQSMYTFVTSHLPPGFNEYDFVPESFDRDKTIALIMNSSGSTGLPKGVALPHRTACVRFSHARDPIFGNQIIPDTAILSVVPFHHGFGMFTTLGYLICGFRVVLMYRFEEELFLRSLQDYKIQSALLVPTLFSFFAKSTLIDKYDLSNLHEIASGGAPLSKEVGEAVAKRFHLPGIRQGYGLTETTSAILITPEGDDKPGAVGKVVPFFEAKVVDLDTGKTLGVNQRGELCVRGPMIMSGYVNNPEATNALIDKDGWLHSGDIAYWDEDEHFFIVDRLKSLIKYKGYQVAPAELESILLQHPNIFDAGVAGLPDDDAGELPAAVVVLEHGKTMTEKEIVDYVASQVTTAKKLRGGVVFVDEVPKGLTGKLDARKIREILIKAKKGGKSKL

Structure (SMILES)	Potency	activity change, negative = inhibition
COC(=O)c1ccc(NC(=O)CSc2nccn2CCc2ccccc2)cc1	inconclusive: 26.9 µM [inhibitor, single point]	
O=c1c2ccccc2nc(-c2ccccc2)n1Cc1ccccc1	inconclusive: 37.9 µM [inhibitor, partial curve, poor fit]	
Cc1ccc(NC(=O)CN2CCc3ccccc3C2)cc1	inconclusive: 26.9 µM [inhibitor, single point]	
COCCNc1nc(C)c(C(C)=O)s1		inactive: -1.79%
O=C1Nc2ccccc2C(=O)C1(Cl)Cc1ccccc1 (stereo not drawn)	inconclusive: 9.53 µM [inhibitor, partial curve]	
Cc1cc(Cl)ccc1OCc1nnc(-c2ccccc2C)o1	inconclusive: 2.69 µM [inhibitor, full curve]	
N#CC(C(=O)c1ccccc1)=C1SCCS1	inconclusive: 37.9 µM [inhibitor, partial curve, poor fit]	
COCC1CCCCN1C(=O)c1ccc2oc(CCCc3ccccc3)nc2c1 (stereo not drawn)	inconclusive: 37.9 µM [inhibitor, partial curve, poor fit]	
COc1ccccc1NC(=O)CSCc1cc(=O)c2cccc(Cl)c2[nH]1		inactive: 1.87%
CC(=O)N1CCN(c2ccc(NC(=O)c3ccc(Cl)cc3)cc2)CC1		inactive: -2.18%
CC(=O)N1CCC2(CC1)C/C(=N\NC(=S)Nc1ccccc1C)c1cc(O)ccc1O2	inconclusive: 37.9 µM [inhibitor, partial curve, poor fit]	
Cc1ccc(-n2nc(CO)c(C(=O)NCc3cccnc3)n2)cc1C	inconclusive: 19 µM [inhibitor, partial curve]	
COc1ccc(S(=O)(=O)c2cn(C)c3cc(N4CCCCCC4)c(F)cc3c2=O)cc1		inactive: 6.71%
COc1ccc(-c2noc(-c3nnn(-c4ccc(C)cc4C)c3C)n2)cc1	inconclusive: 30.1 µM [inhibitor, partial curve, poor fit]	
CCc1c(C(=O)N/N=C/c2ccsc2)csc1C	inconclusive: 23.9 µM [inhibitor, partial curve]	
Cc1cccc(-n2c(C)cc(/C=N/NC(N)=S)c2C)c1		inactive: -19.6%
O=C(OCc1nc(-c2ccccc2Cl)no1)c1ccco1	active: 12 µM	
CCOC(=O)C1CCN(C(=O)C2CCN(S(=O)(=O)c3c(C)noc3/C=C/c3ccc(C)cc3)CC2)CC1		inactive: 7.05%
CCOC(=O)c1c(C)[nH]c(C(=O)OCc2csc(CC(=O)Nc3ccccc3C)n2)c1C	inconclusive: 9.53 µM [inhibitor, partial curve, poor fit]	
Cc1ccc(C(=O)Nc2nccs2)s1	inconclusive: 26.9 µM [inhibitor, partial curve]	
C=CCn1c(SCC(=O)Nc2ccc3c(c2)OCCO3)nc2cc(C(=O)O)ccc2c1=O	inconclusive: 37.9 µM [inhibitor, single point]	
Cc1cccc(C(=O)Nc2ccc(CC(=O)O)cc2)c1	active: 9.53 µM	
Cc1ccc(C(C)C)c(OCC(=O)Nc2ccc3c(c2)nc(CCNC(=O)c2ccco2)n3C)c1		inactive: -7.22%
CC(=O)Nc1nc(COc2ccccc2)cs1	inconclusive: 21.3 µM [inhibitor, single point]	
COc1ccc(S(=O)(=O)NCCc2sc(-c3cccnc3)nc2C)cc1		inactive: -5.83%

Structure (SMILES)	Potency	activity change, negative = inhibition
Cn1c(=O)c2c(-c3ccccc3)n3c(c2n(C)c1=O)C(c1ccc([N+](=O)[O-])cc1)Nc1ccccc1-3 (stereo not drawn)		inactive: -4.5%
CCCn1c(C)cc(C(=O)COc2ccc(C)nc2[N+](=O)[O-])c1C	inconclusive: 23.9 µM [inhibitor, single point]	
Cc1ccccc1C(=O)Nc1ccc2c(c1)OCCO2	active: 2.39 µM	
CCC(C)(C)NC(=O)CCCSc1nc2ccccc2[nH]1	inconclusive: 26.9 µM [inhibitor, partial curve, poor fit]	
CCCCC(=O)Nc1ccc(NC(=S)NC(=O)CCCCl)cc1OC		inactive: 6.04%
O=C(Oc1ccccc1)c1ccc(COC(=O)c2cnccn2)cc1	inconclusive: 26.9 µM [inhibitor, single point]	
COc1cccc2[nH]c3c(N4CCC5(CC4)OCCO5)ncnc3c12	inconclusive: 23.9 µM [inhibitor, single point]	
Fc1ccccc1-c1csc(=Nc2cccnc2)n1CC1CCCO1 (stereo not drawn)		inactive: -9.52%
CCOc1ccc(CCNC(=O)NCc2noc3ccc(C)cc23)cc1	inconclusive: 15.1 µM [inhibitor, partial curve, poor fit]	
O=C(Nc1cccnc1)c1ccc(S(=O)(=O)c2ccc(Cl)cc2)cc1		inactive: -1.74%
O=C(N/N=C/c1ccc2c(c1)OCO2)c1cc(-c2ccccc2)nc2ccccc12	active: 10.7 µM	
CCc1oc2ccccc2c1C(=O)c1cc(Br)c(O)c(Br)c1	active: 15.1 µM	
Cc1cc(C(=O)CCl)c(C)n1Cc1ccco1	inconclusive: 37.9 µM [inhibitor, single point]	
CCOC(=O)c1sc2nc(-c3cccnc3)ccc2c1N	active: 0.478 µM	
NC(=O)c1ccc(NC(=O)C#Cc2ccccc2)cc1	inconclusive: 16.9 µM [inhibitor, single point]	
O=C(CCOc1ccccc1F)N1CCN(c2ccccc2O)CC1	inconclusive: 23.9 µM [inhibitor, partial curve, poor fit]	
O=S(=O)(c1ccc2ccccc2c1)N1CCC(c2nc(-c3ccncc3)no2)CC1		inactive: -0.0317%
Cc1csc2nc(COc3ccc(NC(=O)c4ccccc4F)cc3)cc(=O)n12		inactive: -2.45%
COc1ccc(OCC(=O)Nc2ccc(OC)c(S(=O)(=O)N3CCCCC3)c2)cc1	inconclusive: 30.1 µM [inhibitor, partial curve, poor fit]	
CCOC(=O)COc1ccc2c(c1)C(=O)CC(C)(C)O2	inconclusive: 37.9 µM [inhibitor, partial curve, poor fit]	
C/C(=N/NC(=O)c1cccc(N2CCCC2=O)c1)c1ccncc1	active: 15.1 µM	
CCOc1ccc(C(=O)CCC(=O)O)cc1		inactive: 2.9%
COc1ccc(-c2c(-c3cc(OC)cc(OC)c3)n(C)c3ccc(-c4ccc(SC)cc4)cc23)cc1	inconclusive: 30.1 µM [inhibitor, partial curve, poor fit]	
O=C1CCC(C(=O)N2CCCC(C(=O)c3ccc4c5c(cccc35)CC4)C2)=NN1 (stereo not drawn)		inactive: -15%
CS(=O)(=O)N(CC(N)=O)c1ccc2c(c1)OCO2		inactive: 2.52% [at 2.3 µM]

Structure (SMILES)	Potency	activity change, negative = inhibition
COc1ccc(/C=C/C(=O)c2ccccc2O)cc1CN1CCOCC1		inactive: -3.01%
COc1ccc(-c2nc3ccccc3s2)cc1NC(=O)c1cc(OC)c(OC)c(OC)c1	inconclusive: 2.13 µM [inhibitor, full curve, poor fit]	
CN(C)c1cccc(C(=O)OCc2cc(=O)oc3cc(O)ccc23)c1	inconclusive: 26.9 µM [inhibitor, partial curve]	
COc1ccc(C2NN=C(c3ccc(C)cc3)S2)cc1 (stereo not drawn)	active: 1.2 µM	
CCN(C(=O)c1cccs1)c1nc(-c2ccc(OC)cc2)cs1	inconclusive: 12 µM [inhibitor, partial curve]	
Cc1ccccc1C(=O)Oc1cc(N)n(S(C)(=O)=O)n1	inconclusive: 26.9 µM [inhibitor, partial curve]	
CCC(C(=O)N1CCOCC1)n1nc(C)n2c(cc3cc(C)ccc32)c1=O (stereo not drawn)		inactive: 0.969%
O=C(Nc1ccc2oc(-c3cccnc3)nc2c1)c1ccccc1F	inconclusive: 7.57 µM [inhibitor, partial curve]	
O=C(C[n+]1ccccc1)N/N=C/c1cc(Br)cc(Br)c1O		inactive: 1.19%
C/C(=N\NC(=O)c1ccccc1O)c1cccs1	active: 7.57 µM	
COc1cccc(-c2ccc(SCC(=O)NCCc3ccccc3)nn2)c1	inconclusive: 26.9 µM [inhibitor, partial curve, poor fit]	
CC1CCN(C(c2ccc(F)cc2)c2sc3nc(-c4ccco4)nn3c2O)CC1 (stereo not drawn)	inconclusive: 19 µM [inhibitor, partial curve, poor fit]	
CC(=O)N1CCCc2cc(S(=O)(=O)Nc3ccc(Cl)cc3F)ccc21		inactive: -13.7%
Cc1cc(C)n(-c2ccc(N3CCOCC3)nn2)n1	inconclusive: 13.5 µM [inhibitor, partial curve, poor fit]	
Cc1cc(N=Nc2ccc(Cl)cc2)cc(CN2CCCC2)c1O	inconclusive: 19 µM [inhibitor, partial curve]	
Cc1cc(/C=C(\C#N)C(=O)NCCc2c[nH]c3ccccc23)c(C)n1C	inconclusive: 10.7 µM [inhibitor, partial curve, poor fit]	
O=C(COCc1cc(-c2ccco2)on1)Nc1cc(Cl)ccc1O	inconclusive: 33.8 µM [inhibitor, partial curve, poor fit]	
CCOC(=O)C1=NNC(C(=O)c2ccccc2)C1c1ccc(C)cc1 (stereo not drawn)	inconclusive: 21.3 µM [inhibitor, single point]	
COc1ccc(-c2nc(SCC(=O)NC3CCCC3)c(-c3ccc(F)cc3)[nH]2)cc1OC	inconclusive: 19 µM [inhibitor, partial curve]	
CCCCCCC#Cc1ccc2c(c1)COc1c3ccccc3nn1-2	inconclusive: 9.53 µM [inhibitor, partial curve]	
COc1ccc(-c2ccc(SC)nn2)cc1	active: 1.51 µM	
COc1cc(N)ccc1-c1cc2ccccc2oc1=O	inconclusive: 30.1 µM [inhibitor, partial curve, poor fit]	
CCOC(=O)c1ccc(S(=O)(=O)NNC(=O)c2cccc(N(C)C)c2)cc1	active: 19 µM	
